The source gives no read counts; variants with many changes may rest on few reads.
B1: CPEB3 Ribozyme (parent)
chain: UAACAGGGGGCCACAGCAGAAGCGUUCACGUCGCAGCCCCUGUCAGAUUCUGGUGAAUCUGCGAAUUCUGCUGUAUAUCUC

Variants of: B1
Assay: self-cleavage, relative activity (ratio to wild type); higher = more cleavage; in vitro, sequencing
How it was run: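 After error-prone PCR and barcoding, CPEB3 ribozyme mutant libraries were transcribed with T7 RNA polymerase at 37°C for 5 hours, then given 15 min with DNase I before an EDTA stop, and they cleaved during both steps. Reverse transcription with template switching preceded Illumina sequencing. Relative activity divides a variant's cleaved/total read fraction by the unmutated ribozyme's. At least 5 reads were required per variant, and three batches were averaged.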

Variant | self-cleavage
C11G U41C A47G U80C | 0.39
C11G U41C U80A | 0.84
C11G U43A A75G | 0.33
C11G U48A U51A U66A | 0.22
C11G U51C A64G A65G | 0.07
C11G U69C U72A | 0.1
C11U A13C U25A A28U U74C A75G | 0.05
C11U A13C U54A U72C | 0.08
C11U A13U C44A U69A U80C | 0.07
C11U A13U U25A | 0.31
C11U A15G G42A A64G | 0.1
C11U A15G G63A | 0.45
C11U A15G U25C A35C U49C | 0.21
C11U A15G U25C A45U A64G | 0.21
C11U A15G U41A U66G C68A | 0.07
C11U A15U A21G A45G U69C | 0.36
C11U A18G A21G C59A G63C U72A | 0.05
C11U A18U U51A | 0.17
C11U A18U U60C | 0.12
C11U A20G A35G U41C G46U U51A U60A | 0.37
C11U A20G U25C U60A U69A | 0.15
C11U A20G U26C A47G A56G A64G U76G | 0
C11U A21G A57G U60C | 0.14
C11U A21G A64U | 0.22

Variant | self-cleavage
C11U A21G U25G U48C | 0.23
C11U A21G U49C | 0.22
C11U A28G U41G A64G U78C | 0.06
C11U A28U C59G U80C | 0.08
C11U A35G C37G U51A G55U | 0.06
C11U A35G U49C U66C | 0.09
C11U A35U C39U U72C U80C | 0.17
C11U A35U U41A U78C | 0.04
C11U A45C U58C | 0.06
C11U A45C U76C | 0.05
C11U A45G A47G U48C | 0.1
C11U A45G U54A A75C | 0.39
C11U A47G A64G U72C | 0.16
C11U A56G U74A A77C | 0.49
C11U A57G U69C | 0.07
C11U C12A U26C G30U U69C | 0.16
C11U C14A U49C A57G U72A | 0.13
C11U C27A U80C | 0.1
C11U C27G A35G C37G U41C A45U A64G | 0.04
C11U C40A G46U U49C | 0.07
C11U C40U U54A U60C | 0.17
C11U C62A U72C | 0.19
C11U C62U U76C | 0.52
C11U G16A A20G C40U A75G | 0.05

Variant | self-cleavage
C11U G30A U72C U80A | 0.05
C11U G46C U67C | 0.06
C11U U25C A45U U48G | 0.06
C11U U25C A57G | 0.19
C11U U25C A57G U67A | 0.04
C11U U25C C29U A35C U49C U72A | 0.03
C11U U25C U26C C71G | 0.04
C11U U25C U26C U51G U78C | 0.04
C11U U25C U31A C34U U54C U69G | 0.04
C11U U25C U31C U41A A45U U72C | 0.06
C11U U26A U43G U78C | 0.17
C11U U26A U49C A57G | 0.1
C11U U26A U49C G53C U74A | 0.14
C11U U26C U80A | 0.26
C11U U31A G53U U67C U80C | 0.07
C11U U31A U76A A77G | 0.13
C11U U41A A45U U72C | 0.07
C11U U41C U43C U58A | 0.11
C11U U41C U76C | 0.71
C11U U43C U80C | 0.07
C11U U49C U69G | 0.07
C11U U51A A64G U69G | 0.13
C11U U54A C79U | 0.57
C11U U54A U69A | 0.14

Variant | self-cleavage
C11U U60A U78C | 0.07
C11U U60C A77C | 0.1
C11U U67A U72A U74C U78C | 0.12
C11U U67G A77G | 0.35
C12A A13C U26A A35U A45U G55A | 0.48
C12A A13G A15G U72A | 0.12
C12A A13G A18G U41C A64G U66C | 0.19
C12A A13G A18U U66C | 0.21
C12A A13G C40U U78C | 0.28
C12A A13G U25A | 0.43
C12A A13G U31C A56G U67C | 0.1
C12A A13U A18U U54C | 0.47
C12A A13U A20G A21G U51C A57G U60C | 0.11
C12A A13U A21G G24A U58C | 0.29
C12A A13U A28U | 0.93
C12A A15G C32A A56G A57G | 0.07
C12A A15U U66C U76C | 0.3
C12A A18G U31C A35U | 0.09
C12A A18G U49C U54C U66C U80A | 0.14
C12A A18U C68A U80C | 0.2
C12A A18U U31C G55U | 0.14
C12A A28G U66A | 0.17
C12A A28U U31C G36C U43C G61A | 0.05
C12A A35G U54C G61A U67A C79A | 0.25

Variant | self-cleavage
C12A A35U A57C A75U | 0.84
C12A A35U U43C U67C | 0.07
C12A A35U U43C U80A | 1.24
C12A A45G U78C | 0.83
C12A A56U U69C | 0.29
C12A C14A U41A C59A A75U | 0.18
C12A C17G A18U U25C U60G C62U | 0.06
C12A C23A U26C U43C A45G U54C | 0.08
C12A C39A A56G U80C | 0.37
C12A C62G G73A U76C | 0.3
C12A G24A A35G U60C | 0.18
C12A G33A U41A | 0.12
C12A U25A A45U A47G C62U | 0.23
C12A U25C A45G U48C A64U | 0.11
C12A U25C U26C U31A U43A | 0.11
C12A U25C U31C G61A | 0.13
C12A U31C A57C | 0.35
C12A U31C C38A U72C U80C | 0.24
C12A U31G G33C U49C U66C | 0.13
C12A U41A A45G A56G | 0.09
C12A U41A U67C | 0.09
C12A U51A U67C | 0.22
C12A U54C C79A | 1.22
C12G A13G C17G | 0.31

Variant | self-cleavage
C12G A13U U25C C40A | 0.05
C12G A13U U60A A64G | 0.31
C12G A15C G24U U25C U31C A56G U80A | 0.04
C12G A18U U26A | 0.1
C12G A21U A45U U66C U78C | 0.04
C12G A28G A57G U58C U74A | 0.16
C12G A35U U41C G53C A57C | 0.29
C12G C27A U43A C50A A64G | 0.14
C12G U26C U31A A35U U69C U72A U80C | 0.03
C12G U54A U78C | 0.36
C12U A13C U51A A56U A65G U78G | 0.58
C12U A13G A20U A28U U31C U43G U60C | 0.05
C12U A13G U25C A28G U76A | 0.06
C12U A13U A15U C29U U74A | 0.69
C12U A13U A21G U26C A56U A57G U67C | 0.05
C12U A13U A28U U58C A77U | 0.49
C12U A13U C40U U60C | 0.23
C12U A15C A18U A20U A64G A75G U80C | 0.07
C12U A15C A65G | 0.6
C12U A15G A18C G46A | 0.28
C12U A15G A18U U58C | 0.2
C12U A15G A20G U51C G70A | 0.11
C12U A15G C81U | 0.94
C12U A15G G24C | 0.23

Variant | self-cleavage
C12U A15G G30A | 0.18
C12U A15G U31C U48C | 0.09
C12U A15G U43A U69A | 0.2
C12U A15G U48C U58C U72G | 0.14
C12U A15U U43A U51C U60A U72C | 0.21
C12U A15U U54A U74C | 1.24
C12U A15U U67A | 0.56
C12U A18C U51C U60A | 0.27
C12U A18G A20G A64G | 0.28
C12U A18G A28G U31C A45G C59A | 0.26
C12U A18G G24A U48C A65U | 0.03
C12U A18G G30A A47U U48G U72A | 0.04
C12U A18G G46A U60C | 0.12
C12U A18G U26C A28U A57G U74C U80G | 0.05
C12U A18G U67A C71A A75G | 0.17
C12U A18U A28G A47C U48A U51A | 0.11
C12U A18U U41C U66G U78C U80C | 0.22
C12U A20G A65G U80C | 0.29
C12U A20G C40U | 1.08
C12U A20G U72C | 1.18
C12U A21G A56G U72C | 0.75
C12U A21G U41A A64U | 0.24
C12U A21G U51A U66C U67C | 0.33

— the RNAGym collection of RNA variant scans (doi:10.1093/nar/gkz1192)
